Test results as given in ChEMBL document CHEMBL1156829.
The full ranking holds about 5,400 compounds; the median of “IFI” is about 2, and the highest 2% start at about 22. The list shows a part of the results.

Assay: NOVARTIS: Inhibition Frequency Index (IFI) - the number of HTS assays where a compound showed > 50% inhibition/induction, expressed as a percentage of the number of assays in which the compound was tested.
Assay type: functional

SMILES | IFI [%]
CCOc1ccc2ncc(S(=O)(=O)c3ccc(OC)cc3)c(N3CCN(C)CC3)c2c1 | 0
Cc1ccc(-c2nn(CC(=O)Nc3cccc(C)c3)c(=O)c3ccccc23)cc1 | 1.18
COc1cc2c(cc1OC)C(CCCCCl)=NC(C)(C)C2 | 0
COc1ccc2nc(C)cc(Nc3cccc(O)c3)c2c1 | 0
CN(C)c1ccc(Nc2nc(NCC3CCCO3)c3ccccc3n2)cc1 (stereo not given) | 7.69
CCCCCN(C(=O)c1ccc2ccccc2c1)C(CC)c1nc2ccccc2c(=O)n1-c1ccc(Cl)cc1C (stereo not given) | 1.89
O=C1NCCN1C(=O)C(c1ccccc1)c1ccccc1 | 4.54
CCCCCCCCCCOC(=O)Cn1c(C)[n+](C)c2ccccc21 | 1.53
CCCCCCCc1ccc(-c2nnc(-c3ccc([N+](=O)[O-])cc3)o2)cc1 | 0
COc1ccc(CCNc2nc(NCCCN(C)C)ncc2C(=O)NCc2ccccc2)cc1OC | 2.86
COc1ccc(/C=C\c2nc(=O)c3ccccc3o2)cc1 | 0
c1ccc2c(c1)[nH]c1ccc3ccncc3c12 | 2.78
CCOC(=O)C1=C(C)N(c2ccc(N(C)C)cc2)C(C)=C(C(=O)OCC)C1c1ccc(Br)cc1 | 0
CN(C)c1oc(-c2ccc(Cl)cc2Cl)nc1[P+](c1ccccc1)(c1ccccc1)c1ccccc1 | 20.4
COc1cc2nc(NCCCOC(C)C)n3nc(-c4ccccc4)nc3c2cc1OC | 0
Cc1nc(NC(=N)N)nc2ccccc12 | 0.585
CN1[C@@H](C(=O)Nc2ccc3c(c2)OCO3)C[C@@H](c2ccc(F)cc2)NS1(=O)=O | 0
O=C1CC(c2ccc(O)cc2)C2=C(CC(c3ccccc3Cl)CC2=O)N1 (stereo not given) | 0
CNC(=O)c1nn(C)c2c1CC(NCC1CCCCC1)CC2 (stereo not given) | 4.88
Cc1cc(Nc2ccc(C(=O)n3ccnc3)cc2)n2ncnc2n1 | 4.65
COc1ccc2cc(CNCCc3cccc(Cl)c3)c(N3CCC(=O)N(CCN(C)C)CC3)nc2c1 | 9.73
CNC(=O)[C@@H]1C[C@@H](NCc2ccc(OC)cc2)CN1Cc1ccccc1 | 0
O=C(CSc1oc(-c2ccc(Cl)cc2)nc1[P+](c1ccccc1)(c1ccccc1)c1ccccc1)c1ccccc1 | 21.4
COc1ccc(CCNc2nc(NCCCN3CCCCC3C)ncc2C(=O)NCc2ccccc2)cc1OC (stereo not given) | 3.81
Cc1nc2ccc(Cl)cc2c(O)c1I | 0.752

SMILES | IFI [%]
CC(C)CC1=Nc2cc(C(=O)NC(C)C)ccc2CN1Cc1ccccc1 | 3.8
C=CCNC(=O)c1cc2c(=O)n3cccc(C)c3nc2n(CCc2ccccc2)c1=N | 5.88
C=CCSC1=NC2(CC(c3ccccc3)c3cc(Cl)c(O)cc3O2)CC(C)(C)N1 (stereo not given) | 0
CCC(C)Nc1nc(NC(C)CC)nc(N2CCCCCC2)n1 (stereo not given) | 0
COc1ccc(/C=C2\SC(=Nc3ccccc3OC)NC2=O)cc1 | 7.69
O=C(NC1CCCCC1)c1noc2c1CCCCC2 | 11.4
Cc1ccc(C2=NC(C(F)(F)F)(C(F)(F)F)N=C3C=CC(Cl)=CN32)cc1 | 0
CCN1C(=S)NC2c3cc(C)ccc3OC13CCCC23 (stereo not given) | 0
CCCn1c(=N)c(C(=O)NC2CCCCC2)cc2c(=O)n3cccc(C)c3nc21 | 8.33
O=C(CN1C(=O)C2C3CCC(C3)C2C1=O)N1CCCC(c2ncncc2-c2ccncc2)C1 (stereo not given) | 0
CCOc1ccc(C2N(C)c3ccccc3N2C)cc1 | 2.74
NCCC(=O)N1CC(c2ccccc2)c2ccccc2C1CN1CCCCC1 (stereo not given) | 4.22
O=S(=O)(NCCCCNc1ccnc2cc(Cl)ccc12)c1ccc2ccccc2c1 | 1.89
CCN(CC)CCNc1ccc(Nc2ccnc3cc4ccccc4cc23)cc1 | 17.2
Oc1c(CN2CCCCC2)ccc2ccccc12 | 0
CC(C)CNc1nc(NCCCN2CCCC2)ncc1C(=O)NCCc1ccccc1 | 1.91
COc1cc(C(c2c(C)n(C)n(-c3ccccc3)c2=O)c2c(C)n(C)n(-c3ccccc3)c2=O)cc(Cl)c1OCc1ccccc1 | 0
CCOc1ccc(Nc2ccnc3cc(Cl)ccc23)cc1 | 5.17
COCCNC(=O)c1ccc2c(=O)n(Cc3ccc4c(c3)OCO4)c(=S)[nH]c2c1 | 0
COc1ccc(-c2cc(C3CCN(c4nc(N)c5cc(OC)c(OC)cc5n4)CC3)n[nH]2)cc1OC | 7.41
O=C(c1ccc([N+](=O)[O-])cc1)c1ccc(N2CCOCC2)c([N+](=O)[O-])c1 | 0
CC(=O)Nc1ccc(C(=O)N2CCC(Oc3cccc(CN(C)Cc4cccc5ccccc45)c3)CC2)cc1 | 2.94
CC[n+]1c(/C=C/C=C2\N(C)c3ccccc3C2(C)C)n(-c2ccccc2)c2cc(Cl)ccc21 | 33.3
CCOC(=O)c1c(Cl)nnc(-c2ccccc2)c1-c1ccccc1 | 0
CCCCNCCOCCOc1ccc(Br)cc1 | 0

SMILES | IFI [%]
Cc1cccc2cc(CNC34CC5CC(CC(C5)C3)C4)c(N3CCC(N4CCC(O)CC4)CC3)nc12 | 2.91
Cc1cc2cc3c(cc2c(C)n1)c1ccccc1n3C | 15.4
CCC(Sc1nnc(-c2ccc(C)cc2)c(-c2ccc(C)cc2)n1)C(=O)NCCOC (stereo not given) | 0
CCN1CC=C2C(C#N)=C(N)C(C#N)(C#N)C(c3ccc(C)s3)C2C1 (stereo not given) | 0
COc1cc2nc(NCC3CCCO3)n3nc(-c4ccccc4)nc3c2cc1OC (stereo not given) | 2.27
COc1ccc(-c2cc(C(=O)NCc3cccnc3)no2)cc1OC | 0
CCN1/C(=C/C=C/c2oc3ccc(-c4ccccc4)cc3[n+]2CC)Oc2ccc(-c3ccccc3)cc21 | 15.4
O=[N+]([O-])c1cc(C(F)(F)F)cc([N+](=O)[O-])c1Sc1cccc2cccnc12 | 14.3
COc1ccc(C2CC3=NC(C)=C(C(=O)OC(C)C)C(c4ccccc4OC)C3=C(O)C2)cc1OC (stereo not given) | 3.49
Oc1ccccc1CN1CCN(C(c2ccccc2)c2ccccc2)CC1 | 1.82
CC(C)CN1C(=O)c2ccccc2C(C(=O)Nc2ccc(C(C)C)cc2)C1c1cccs1 (stereo not given) | 6.06
O=C(CC1N=C2c3ccccc3N=C(SCc3cccc(F)c3)N2C1=O)NCc1cccs1 (stereo not given) | 14.3
Cc1cc(N2CCN(Cc3ccccc3)CC2)n2c(nc3ccccc32)c1C#N | 4.62
CCOc1cccc2oc(=O)c(C(=O)Nc3cc(C(C)(C)C)on3)cc12 | 0
COc1ccc2[nH]c3c(NCCN4CCCCC4)ncnc3c2c1 | 9.76
CCCN(CC1CC1)C(=O)C1CCCN(c2cccc3c2C(=O)N(Cc2cc(OC)c(OC)c(OC)c2)C3=O)C1 (stereo not given) | 5.46
COc1cc(C2CC(=O)NC3=C2C(=O)CC(c2ccccc2Cl)C3)ccc1O (stereo not given) | 0
O=C1c2ccccc2-c2nnc(-c3ccc(Br)cc3)cc21 | 5.88
O=C(c1ccccc1)N1CCN(c2ccccc2NC(=O)C(Cl)(Cl)Cl)CC1 | 0
CCCCc1c(C)nc2ccc(Br)cc2c1O | 0
Cc1nc2ccccc2c(O)c1CC=C(Cl)Cl | 1.96
O=C(NCc1ccccc1)c1cnc(NCCCn2ccnc2)nc1Nc1ccccc1 | 0.971
Cc1cc(Nc2ccc(Cl)c(Cl)c2)n2ncnc2n1 | 0
Cc1cc(F)ccc1NC(=O)C(C)n1c2ccccc2c2nc(=O)cc(C)n21 (stereo not given) | 0
COc1ccc2c(c1OC)C(=O)N1c3ccccc3N=C(c3ccc(I)cc3)CC21 (stereo not given) | 0.725

SMILES | IFI [%]
COc1ccc(C2N=C(N)N=C(N)N2c2ccc(C)cc2)cc1 (stereo not given) | 1.37
NCC(c1ccc(F)cc1)c1ccc(F)cc1 | 0
Oc1ccccc1-c1nc(-c2ccccc2)nc(-c2ccc(Br)cc2)n1 | 0
CC(C)(C)c1ncccc1OC(=O)C12CC3CC(CC(C3)C1)C2 | 3.15
CCOC(=O)c1c(NC(C)=O)sc2c1CCN(C(C)C)C2 | 0
COc1cc(/C=C(\C#N)c2nc3ccccc3[nH]2)ccc1OCc1ccc(Cl)cc1 | 0
C[n+]1cccc2ccc3cccnc3c21 | 1.39
CCN1CCN(c2cc(C)c3cc(NC(=O)/C=C/c4ccccc4Cl)ccc3n2)CC1 | 8.2
CCn1c(SCC(=O)NCCc2ccccc2)nc2sc3c(c2c1=O)CCN(C)C3 | 8
Cc1nc(-c2ccccc2)nc(C(=O)N2CCN(C(=O)/C=C/c3ccccc3)C(C)C2)c1C(=O)OC(C)C (stereo not given) | 1.89
O=C(C1CCC1)N1CCN(c2ccccn2)CC1 | 0
Cc1ccc(N2C(=O)C3C(C2=O)C2(c4ccccc4)C(=O)C3(c3ccccc3)C(c3ccccc3)=C2c2ccccc2)c([N+](=O)[O-])c1 (stereo not given) | 0
CCCCCN1/C(=C\C=C\c2n(CCCCC)c3cc(Cl)c(Cl)cc3[n+]2CC)N(CC)c2cc(Cl)c(Cl)cc21 | 0
CCCCCC(=O)N(CCN(C)C)C(CC)c1nc2ccccc2c(=O)n1-c1ccc(F)cc1 (stereo not given) | 0
COc1cc(C(=O)NCc2ccco2)ccc1OC1CCN(CC(c2ccccc2)c2ccccc2)CC1 | 1.45
O=C(CCl)NCCCN(C(=O)Nc1ccc(Cl)c(Cl)c1)c1ccccc1 | 4.17
CCN1CCN(Cc2cc(=O)oc3cc(-c4ccccc4)c(O)cc23)CC1 | 0
CN(C)c1ccc(/C=C/c2cc(/C=C/c3ccc(N(C)C)cc3)[n+]3ccccc3n2)cc1 | 21.4
CCCCCc1ccc(OCCOCC[n+]2ccccc2)c(CCCCC)c1 | 4.54
CCOC(=O)C1=C(C)N(CCNc2ncc(C(F)(F)F)cc2Cl)C(=O)CC1 | 0
CCNc1nc(NC(C)C)nc(NC(N)NOC)n1 (stereo not given) | 0
O=C(NC(c1ccccc1)c1ccccc1)N(Cc1ccccc1)CC(O)CN(CCN1CCOCC1)S(=O)(=O)Cc1ccccc1 (stereo not given) | 1.94
O=C1CC(c2ccccc2)CC2=C1C(c1ccccc1[N+](=O)[O-])Nc1ccccc1N2 (stereo not given) | 1.07
c1ccc2cc3c(N4CCN(CCN5CCN(c6ccnc7cc8ccccc8cc67)CC5)CC4)ccnc3cc2c1 | 8.2
OC(COc1ccccc1CNCCN1CCCC1)CN1CCc2ccccc2C1 (stereo not given) | 7.69
